# Hit rate of the full screen: of about 46,000 compounds, about 60 (0.1%) were called active. Roughly 3% stayed inconclusive and do not appear here. Calls come from the whole dose curve; as a rule, active = well fitted inhibition curve with a large enough effect; inconclusive = small, poorly fitted or top-dose-only effect; inactive = no such curve, though single readings can be large or run the other way. The list shows a part of the results.
# Experiment: Primary qHTS assay for Inhibitors of ovarian cancer metastasis using an organotypic tumor microenvironment (TME) model.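 For activity change, negative = inhibition: plate controls were DMSO wells for no effect and tomatine positive control wells for full effect.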 Note: nearly all actives have a fitted effect of over 65% in size.
# Conditions: SKOV3ip1-GFP adhesion/invasion on 3D omental model, fluorescence; series mostly up to 45.8 µM; activity change, negative = inhibition: at the top concentration
# Summary of the method: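 A 3D layer of primary human omental fibroblasts, mesothelial cells, fibronectin and collagen I, grown 48 hr, received SKOV3ip1-GFP cells in serum-free medium plus compounds at 0.36-46 umol/L. After 2 hr RT and 16 hr 37 C, fixed adherent GFP cells were counted; normalized to DMSO and tomatine.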
SMILES,"activity change, negative = inhibition",outcome
CCc1ccc(C(=O)COC(=O)C(Cc2c[nH]c3ccccc23)NC(=O)c2ccc(CC)cc2)cc1 (centres undefined),inactive: -7.72%,
Cc1ccc(NC(=O)CN2C(=O)COc3ccc(S(=O)(=O)N4CCCCCC4)cc32)cc1Cl,,inactive
Cc1ccc(OCC(=O)Nc2nonc2-c2ccc(C)c(C)c2)cc1C,inactive: 1.59%,
COC(=O)Nc1nc2ccc(C(=O)c3ccc(F)cc3)cc2[nH]1,inactive: -13.9%,
CCCCn1c(=NC(=O)C(C)(C)Oc2ccc(Cl)cc2)c(C(=O)OCC)cc2c(=O)n3ccccc3nc21,inactive: -34.5%,
COc1cccc(N2CCN(C(=O)c3cc4c(s3)-c3c(C)cccc3OC4)CC2)c1,inactive: -14%,
Cc1ccc(C)c(CNC(=O)c2ccc3c(c2)nc2n3CCOC2)c1,inactive: -12.7%,
CC(C)Cc1nn2c(=O)cc(COC(=O)CNC(=O)c3ccc(C(C)(C)C)cc3)nc2s1,,inactive
COc1ccccc1C(=O)Nc1cccc(C(=O)OCc2cc(=O)n3nc(C4CC4)sc3n2)c1,inactive: 0.665%,
O=C(Nc1ccc(OC(F)(F)F)cc1)C(Cc1ccccc1)NS(=O)(=O)c1cccc2nsnc12 (centres undefined),inactive: -8.08%,
COc1cccc(CNC(=O)Cn2ccc3cc(S(=O)(=O)N4CCCC4)ccc32)c1OC,,inactive
COc1ncc(-c2ccc3nccc(-c4ccnnc4)c3c2)cc1NS(=O)(=O)c1ccc(F)cc1F,inactive: 4.37%,
CCOC(=O)c1c(Nc2ccc(O)cc2)nnc(-c2ccccc2)c1-c1ccccc1,inactive: -8.96%,
Cc1ccc(S(=O)(=O)c2nnn3c2nc(NCc2ccc4c(c2)OCO4)c2sccc23)cc1,inactive: 21.1%,
COC(=O)c1ccc(C2c3c(oc4ccc(C)cc4c3=O)C(=O)N2Cc2ccc3c(c2)OCO3)cc1 (centres undefined),inactive: 6.61%,
CCOC(=O)c1noc2ncnc(Nc3cc(Cl)c(OC)cc3OC)c12,,inactive
COc1cccc2sc(NC(=O)c3ccc(S(=O)(=O)N4CCC(C)CC4)cc3)nc12,,inactive
Cc1ccc(-c2nnc(Nc3ccc(C(N)=O)cc3)c3ccccc23)cc1S(N)(=O)=O,inactive: -0.757%,
O=C(Nc1ccc(-c2nc3ccccc3o2)c(O)c1)c1ccccc1,inactive: -0.336%,
COc1ccc(NC(=O)Cn2c(=O)c3cccn3c3ccccc32)cc1Cl,inactive: -6.42%,
CC(C)CN(C[C@H](O)[C@H](Cc1ccccc1)NC(=O)O[C@H]1CCOC1)S(=O)(=O)c1ccc(N)cc1,inactive: -5.86%,
Cc1cc(C)cc(NC(=O)c2ccc3oc(=O)c(S(=O)(=O)c4ccc(F)cc4)cc3c2)c1,inactive: -3.76%,
CCN1CCN(CCCNC(=O)CS(=O)(=O)Cc2nc(-c3ccccc3C)oc2C)CC1,,inactive
COc1ccc(N2CCN(C(=O)C3CCN(S(=O)(=O)c4cccc5nonc45)CC3)CC2)cc1,inactive: 3.18%,

SMILES,"activity change, negative = inhibition",outcome
CCOc1ccccc1OCCCCn1c(-c2ccc(Cl)cc2)nc2ccccc2c1=O,inactive: -15.2%,
Cc1nnc(N2CCCC(C(=O)NCCN(C)C)C2)c2nn(-c3ccccc3)c(C)c12 (centres undefined),inactive: 1.95%,
CCOc1ccc(CNCc2c(C(=O)O)c(C)n(Cc3ccc(C)cc3)c2C)cc1,inactive: 8.52%,
Cc1sc(-c2cc3ccccc3oc2=O)nc1-c1ccc(Cl)c(Cl)c1,inactive: -1.18%,
COc1ccc(-c2nc3sc(CCNC(=O)Cc4ccc(F)cc4)c(C)n3n2)cc1,inactive: -11.2%,
COc1ccc(C)cc1NC(=O)Nc1cc(C(=O)NCc2ccc(C)cc2)ccc1N1CCCC1,inactive: -3.09%,
CCC(Sc1nc(-c2ccccc2)[nH]c1S(=O)(=O)c1ccc(C)cc1)C(=O)O (centres undefined),inactive: -4.23%,
Cc1ccc(-n2ncc3c(N(C)C)ncnc32)cc1Cl,inactive: -4.69%,
O=S(=O)(Nc1ccc(-c2ccc(N3CCCC3)nn2)cc1)c1ccc(C(F)(F)F)cc1,,inactive
Cc1cc(C)cc(OC(=O)c2cc(-c3ccc(Cl)cc3)on2)c1,,inactive
Cc1cccc(-c2nc(CCNC(=O)c3ccc(Br)o3)cs2)c1,inactive: -8.57%,
O=C(NCCCN1CCN(c2ccc(F)cc2)CC1)c1cc2c(Cl)nc3ccccc3c2s1,inactive: 4.08%,
CC(C)c1ccc(-c2noc(SCC(=O)N3CCCCC3C)n2)cc1 (centres undefined),inactive: 8.76%,
Cc1cc(=O)n(Cc2ccc(F)cc2Cl)c2c1c(C)nn2C,,inactive
CC1CCc2onc(C(=O)N3CCN(c4ccc(F)cc4)CC3)c2C1 (centres undefined),inactive: -23.8%,
CCCCCN1C(C(=O)c2ccccc2)=C(NC(=O)c2ccc(C)cc2)c2ccccc2S1(=O)=O,inactive: 2.25%,
CCN(CC)C(=O)Cn1c(=O)n(-c2ccc(C)c(C)c2)c(=O)c2c(C)c(C(=O)N(CC)CC)sc21,inactive: -1.81%,
CCN1CCN(C(=O)c2cnn(-c3ccc(F)cc3F)c2C2CCN(C(=O)OC(C)(C)C)CC2)CC1,,inactive
CC(=O)c1sc(NC(=O)c2c(-c3ccccc3)c(-c3ccccc3)nn(C)c2=O)nc1C,inactive: 28.2%,
CCOc1ccc(NC(=O)c2c(NCc3cccnc3)sc3c2CCC(C)C3)cc1 (centres undefined),inactive: -28.2%,
COc1ccc(OC)c(NC(=O)c2cnc(Nc3ccc(C)c(Cl)c3)c3ccccc23)c1,,inactive
CC1CCC(N2CC(=O)N(CCC3=CCCCC3)C(c3ccc(F)cc3)C2=O)CC1 (centres undefined),,inactive
Cc1ccc(NC(=O)c2cnc(SCC(=O)N3CCCc4ccccc43)n(C)c2=O)cc1,inactive: 0.938%,
CC(C)(C)OC(=O)N1CCC(c2c(C(=O)N3CCN(c4ccccc4F)CC3)cnn2-c2ccccc2Cl)CC1,,inactive

SMILES,"activity change, negative = inhibition",outcome
O=C(CSc1nc2cc3ccccc3cc2[nH]1)Nc1ccc(F)cc1,inactive: -7.97%,
O=C(NCCc1nc2ccccc2n1Cc1c(F)cccc1Cl)c1ccco1,inactive: 23.8%,
CC1=C(C(=O)Nc2ccc(Cl)cc2)C(c2cccs2)n2nc(SCc3cccc(C)c3)nc2N1 (centres undefined),,inactive
CC(=O)Nc1c(C)nn(-c2ccccc2)c1N1CCC(C(=O)NCc2cccc(Cl)c2)CC1,inactive: -9.71%,
COc1cc(Cl)c(NC(=O)CCc2nc3cccnc3n2-c2ccccc2)c(OC)c1,inactive: 6.66%,
CCOc1ccc(NC(=O)CCNS(=O)(=O)c2ccc3c(c2)CCCC(=O)N3)cc1,inactive: 6.84%,
CCC(=O)N1CCc2cc(Br)cc(S(=O)(=O)N3CCC(C(=O)Nc4ccccc4F)CC3)c21,,inactive
CCCCCOc1ccc(Cn2c(=O)oc3ccc(C)cc32)cc1OC,,inactive
CC(=O)Nc1ccc(-c2nnc3n(Cc4ccc(C)cc4)c(=O)c4ccccc4n23)cc1,inactive: 0.168%,
COc1ccc(CNC(=O)CCc2c(C)c3cc4c(C)c(C)oc4cc3oc2=O)cc1,inactive: -2.03%,
Cc1ccc(C(=O)Nc2nnc(S(=O)(=O)N3CCCCCC3)s2)cc1,inactive: -2.17%,
CCOC(=O)CCC(=O)Nc1nnc2n1CCS2,inactive: 22.6%,
O=c1c(NCc2ccccc2Cl)nccn1-c1ccccc1,,inactive
Cc1c(NC(=O)c2cc(-c3ccccc3O)on2)c(=O)n(-c2ccccc2)n1C,inactive: 10.8%,
CC(=O)N1CCc2cc(S(=O)(=O)NC(CC(C)C)C(=O)NCc3ccccc3Cl)ccc21 (centres undefined),,inactive
CCCOc1ccc(NC(=O)CC2C(=O)N(c3ccc(C)cc3)C(=O)N2CCc2ccncc2)cc1 (centres undefined),,inactive
CCCCc1nn2c(=O)cc(COC(=O)c3ccccc3NC(=O)c3cccs3)nc2s1,inactive: -8%,
O=C(Cn1ccn(-c2ccc(F)cc2)c(=O)c1=O)Nc1ccccc1C(F)(F)F,,inactive
Cc1c(C(=O)N2CCN(c3ccc(F)cc3)CC2)sc2nc3n(c(=O)c12)CCC3,inactive: -6.07%,
O=C1CC(c2cc(F)cc(F)c2)c2cc3c(cc2N1)OCO3 (centres undefined),,inactive
O=C(Nc1ccc(Cl)cc1Cl)c1cc(S(=O)(=O)N2CCCCCC2)ccc1F,inactive: -6.98%,
Cc1cc(C)cc(C(=O)n2nc(C)c(S(=O)(=O)N3CCCCCC3)c2C)c1,inactive: -4.75%,
COc1ccc(Br)cc1C(=O)Nc1ccc(-c2nc3ncccc3o2)cc1C,inactive: 0.459%,
Cc1cccc(-n2c(N)cc(=O)nc2SCC(=O)Nc2ccc(F)cc2)c1C,,inactive

SMILES,"activity change, negative = inhibition",outcome
O=C(Cn1nc(-c2ccccc2)nc(Cc2ccccc2)c1=O)Nc1ccc(Cl)cc1,inactive: 6.29%,
Cc1oc(-c2ccc(C(=O)NCCN(C)C)cc2)nc1CS(=O)(=O)c1ccccc1,,inactive
Cc1cccc(NC(=O)Cn2nnc(C(=O)NCc3ccco3)c2N)c1,inactive: -0.922%,
CC(C)Cn1c(C2CC(=O)N(c3ccccc3Cl)C2)nc2ccccc21 (centres undefined),inactive: 1.43%,
CCc1ccc(NC(=O)CSc2ccc3nc(-c4ccc(OC)cc4)cn3n2)cc1,inactive: -4.18%,
Cc1ccc(C(=O)NCC(=O)OCc2cc(=O)n3ccsc3n2)cc1,,inactive
Cc1ccccc1CNC(=O)c1oc2c(c1C)-c1nn(Cc3ccc(Cl)cc3)cc1CC2,,inactive
CCN(CC)S(=O)(=O)c1ccc2c(c1)N(CC(=O)Nc1ccc(OC)cc1)C(=O)CS2,inactive: 33.8%,
COC(=O)CSc1nc2sc3c(c2c(=O)n1-c1ccc(C)cc1)CC(C(C)C)OC3 (centres undefined),,inactive
CCOc1ccc(Cl)cc1CNCCCSc1nnnn1C,inactive: 4.42%,
c1cc(OCCN2CCCCC2)cc(-c2n[nH]c3ccc(-c4ncn[nH]4)cc23)c1,inactive: 30.2%,
Cc1ccc(CN(C(=O)COc2ccccc2[N+](=O)[O-])c2ccccn2)cc1,inactive: 7.96%,
COC(=O)c1ccccc1NC(=O)c1cnn(-c2ccc(F)cc2)c1-n1cccc1,,inactive
CCOc1ccc(-n2nc(CO)c(C(=O)NCc3ccccn3)n2)cc1,,inactive
CCC(CC)C(=O)Nc1nnc(S(=O)(=O)N2CCc3ccccc32)s1,inactive: -4.23%,
O=C(NCc1ccccc1Cl)C1CCN(C(=O)N2CCOc3ccccc32)CC1,inactive: -10.3%,
Cc1cccc(OCC(=O)NCCc2nc3ccccc3[nH]2)c1C,inactive: 1.51%,
CCCN(CCC)CCNC(=O)CN1C(=O)COc2ccc(S(=O)(=O)N3CCOCC3)cc21,inactive: -1.23%,
COc1ccc(C(=O)NCC(c2ccc3c(c2)OCO3)N2CCOCC2)cc1 (centres undefined),inactive: -5.43%,
Cc1ccc(CN2C(=O)c3ccccc3Sc3ccc(C(=O)NCc4ccco4)cc32)cc1,,inactive
Cc1ccc(S(=O)(=O)N(CC(O)Cn2c3ccccc3c3ccccc32)c2cccc(C(=O)N(C)C)c2)cc1 (centres undefined),,inactive
COc1ccc(C2=NN(S(C)(=O)=O)C(c3cn(-c4ccccc4)nc3-c3cccs3)C2)cc1 (centres undefined),inactive: -4.07%,

# From PubChem BioAssay AID1963576 (National Center for Advancing Translational Sciences (NCATS), 2024)
